# Laboratory results as given in the supplement of paper PMC3334620.
# The full ranking holds about 33,000 sequences; the median of “E-score (-0.5 to 0.5)” is about -0.021, and the highest 2% start at about 0.32. The list shows a part of the results.
# Target: T1, Zap1 (UniProt P47043)
# T1 sequence: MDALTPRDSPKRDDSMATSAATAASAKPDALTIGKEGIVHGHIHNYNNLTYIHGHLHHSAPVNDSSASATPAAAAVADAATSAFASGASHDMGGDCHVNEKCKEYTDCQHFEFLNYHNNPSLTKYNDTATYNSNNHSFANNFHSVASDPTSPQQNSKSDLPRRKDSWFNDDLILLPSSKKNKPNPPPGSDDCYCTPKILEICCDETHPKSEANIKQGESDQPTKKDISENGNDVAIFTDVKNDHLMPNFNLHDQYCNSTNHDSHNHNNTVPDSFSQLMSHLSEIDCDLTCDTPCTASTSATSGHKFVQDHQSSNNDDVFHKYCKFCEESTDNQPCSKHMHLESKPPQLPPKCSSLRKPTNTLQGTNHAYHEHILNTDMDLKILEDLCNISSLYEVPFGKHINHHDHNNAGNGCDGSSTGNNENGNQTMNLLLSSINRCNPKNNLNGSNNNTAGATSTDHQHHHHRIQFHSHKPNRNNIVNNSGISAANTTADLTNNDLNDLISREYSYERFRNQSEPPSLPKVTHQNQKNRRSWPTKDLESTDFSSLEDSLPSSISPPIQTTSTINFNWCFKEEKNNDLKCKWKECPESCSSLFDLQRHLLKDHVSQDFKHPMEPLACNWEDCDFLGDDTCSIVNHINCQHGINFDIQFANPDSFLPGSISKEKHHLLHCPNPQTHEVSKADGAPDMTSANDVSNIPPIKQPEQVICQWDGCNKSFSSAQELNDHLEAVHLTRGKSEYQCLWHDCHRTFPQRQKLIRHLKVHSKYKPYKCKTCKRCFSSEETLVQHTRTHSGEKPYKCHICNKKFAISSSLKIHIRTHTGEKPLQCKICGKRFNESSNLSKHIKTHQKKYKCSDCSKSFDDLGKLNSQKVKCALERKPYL
# Assay: PBM E-score (8-mer binding enrichment) (E-score (-0.5 to 0.5)); higher = stronger / more preferred TF binding; most listed sequences are background and not binding sites
# Conditions: protein concentration: 200 nM; construct: GST-full length
# Outline: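 The E-score, a modified Wilcoxon-Mann-Whitney statistic, was computed by the Universal PBM Analysis Suite for every ungapped eight-base word pooled with its reverse complement. Scans behind it were normalised with masliner after bound GST-tagged yeast transcription factors were detected with fluorescent anti-GST. The proteins, at about 100-200 nM, had been applied to universal all-10-mer Agilent arrays made double-stranded by primer extension.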
row,Sequence,PBM E-score
1,GACGCCAA,0.0748
2,AACGACAG,-0.168
3,GAAGAGTA,-0.0467
4,CGGGAACA,0.0194
5,AAATAGAG,0.0432
6,CCAAGCTA,-0.0368
7,ATCTCAAA,0.0922
8,ACACTGAA,0.111
9,GCGACAAA,0.148
10,GACTCCAA,-0.0824
11,TGTGGCAA,0.0137
12,CATGGGAG,0.0124
13,CAAGACTA,-0.1
14,GATATCAA,0.0972
15,GAACTGCA,-0.0204
16,CGCGGTAG,0.122
17,CCTGACCA,0.299
18,GCTACAGA,-0.283
19,CAGACTTA,-0.218
20,AACATACC,0.18
21,TCTCCGAA,-0.174
22,AGATTGAA,-0.0374
23,TCATACCA,0.199
24,ACAGGATA,0.0473
25,GCGGTAAA,0.165

row,Sequence,PBM E-score
1,ACCTCCCC,0.0726
2,CCCGCCCG,0.108
3,ACGCTCCA,-0.177
4,ATACCTCC,-0.0021
5,GCAATCGC,-0.263
6,ATCTGATA,-0.0479
7,ATTGTCTA,0.092
8,CGTAGGCA,-0.237
9,AATGGCTC,0.00497
10,CCACAATA,0.12
11,CTAATTGA,0.0435
12,GCTCGTTA,-0.162
13,ATAACAAC,0.196
14,ATATTAAC,0.135
15,CTCGGACA,-0.00772
16,GCATACCC,0.344
17,CTCTGCCA,-0.302
18,CAAACGTC,-0.123
19,CCTAACTC,0.196
20,AGTGCTTC,-0.0649
21,GGGATGAA,-0.247
22,AAAACTTC,0.0875
23,GAAGGTGA,0.116
24,ACTACTGA,-0.116
25,AGCATTAC,-0.0711

row,Sequence,PBM E-score
1,ATCGCCTC,-0.0367
2,ATAAACCA,0.121
3,AAAGTATC,0.0665
4,ACTGCCGG,-0.183
5,TGCCTGAA,-0.173
6,AATCTCCG,-0.158
7,AGGAATAG,0.00775
8,ACTCACAG,0.0312
9,CTCCGATC,-0.227
10,CTCGGCCC,-0.27
11,GCTGGAAA,-0.0229
12,GAGGCATA,0.00151
13,CATTTCAA,0.191
14,CGCGAACG,0.00565
15,AGCTGACC,0.182
16,CGGCCTCC,0.0208
17,GAATAGGC,0.09
18,AAACGATC,0.0567
19,AAGGCCGA,-0.022
20,ACCTACGC,-0.0407
21,AGTAACAT,-0.0738
22,ATGGACGC,0.017
23,AGACGTAG,-0.138
24,GATCCTCA,0.112
25,AGGGCACA,-0.0726

row,Sequence,PBM E-score
1,AGCATGAT,-0.153
2,GGGATCCC,0.0219
3,ATGCCAGC,-0.131
4,CAGTCTCA,-0.0911
5,CACGGCTC,-0.115
6,GCGTACAA,-0.105
7,ACTATGCG,-0.141
8,AGCATGAA,-0.0231
9,AATGGTCT,0.0159
10,ATGACCTC,0.442
11,CTCGCATC,-0.0763
12,ACTCAGCG,-0.0722
13,GGGCAAGA,-0.034
14,GATTAGAA,-0.0774
15,CTATGTTA,0.111
16,CTTCAGAC,-0.136
17,CCGTTTAC,-0.0252
18,CATGTACA,-0.119
19,AGGGGAAA,-0.232
20,AACTGCGC,-0.0727
21,CCGTGACG,-0.0247
22,AATTGGCG,-0.0809
23,GTAGCCAC,-0.0136
24,GATGATGA,-0.133
25,CAACGTCC,-0.206

row,Sequence,PBM E-score
1,AAGATTTG,-0.0267
2,AAGATTGT,0.00389
3,ATTACTCC,-0.0197
4,AAGATATC,0.0829
5,CAACTAGA,0.0471
6,GAGTAGGA,-0.289
7,CTATTTGC,-0.163
8,CCTCGTTA,0.13
9,GTCAAATA,0.0381
10,GCGGCTTA,-0.217
11,CTTATATA,0.27
12,AAATTACA,0.0308
13,CGCACTTC,-0.0939
14,AGTTTCTA,0.00207
15,GCCGAGAA,-0.0434
16,CTTTCAGC,-0.125
17,AGTGCGCC,-0.18
18,TCGATTAA,0.15
19,AACCCCTT,0.38
20,CGGCTATA,-0.115
21,CTCCAAAA,0.0984
22,GACTCGAC,-0.257
23,CTTACCTA,0.123
24,CAAGCACC,-0.129
25,CATGGAGG,0.00108

row,Sequence,PBM E-score
1,ACCACACG,0.135
2,GCCTGGTA,-0.125
3,CTAGCGCC,-0.284
4,GGTCTAAC,0.145
5,GCTGTTAC,-0.104
6,AAGTGTGC,-0.127
7,CACTACCA,0.22
8,AACCAACT,0.228
9,GTAGAGAC,-0.104
10,ACATAACC,0.454
11,ATTTGGTC,0.108
12,ACGCATCC,-0.193
13,CCTTTTGA,0.174
14,CAGCGTGG,-0.204
15,CCGATCTC,-0.214
16,CGGTACAG,0.12
17,CGGTTAAG,0.289
18,AAGGACCT,0.199
19,AGTGAATC,-0.106
20,GCAAGAGC,-0.15
21,GAATCCCC,-0.0776
22,CACATCCG,-0.0128
23,GCCAGTCA,-0.207
24,ACTCAGTC,-0.234
25,CGATGACG,-0.313

row,Sequence,PBM E-score
1,AGCATAAT,0.0818
2,GCCCTCTA,-0.245
3,CAGTTACA,-0.0085
4,AAAACATG,0.208
5,GCAGGGCA,-0.104
6,ACGCTCAG,0.0359
7,CTCTCGAC,-0.0216
8,GCGATTCA,-0.185
9,AGCTGATC,-0.0986
10,AGTAGTAA,0.015
11,CGACGGGA,-0.111
12,AGGGACCG,-0.17
13,AGATATCG,-0.0652
14,CACTGTGA,0.1
15,CTCTTGAA,-0.0501
16,AATTAGAC,0.18
17,ATGACTAG,-0.239
18,ATCCGGCA,-0.276
19,AGGAGCGA,-0.23
20,ATTGGTCA,0.303
21,TACGCAAA,0.0757
22,ATAGAACG,-0.0313
23,ATCATCGA,-0.0628
24,AGTCGAGA,-0.164
25,AAAGGCAG,-0.0969

row,Sequence,PBM E-score
1,TAGTGGCA,-0.0925
2,CAACGATC,-0.0691
3,TCAACGGA,-0.152
4,GGTCGGCA,0.0289
5,ACATCTTC,-0.098
6,AAGAGGCT,-0.197
7,TCCCTAGA,-0.0192
8,GATCGCGC,0.119
9,CAACCTGA,0.12
10,CGTTCATA,-0.0193
11,CATGCCGC,0.0743
12,CACGATAA,0.29
13,GAGTTTGA,0.0522
14,ACCGTTAA,0.256
15,ACGGAAAC,0.00544
16,CATATACG,-0.119
17,ACCTGGCC,0.062
18,CGAGTGCC,-0.335
19,ATTTATCG,0.0424
20,GGAGCTCC,0.0478
21,CCTGGGCG,-0.0228
22,AACAAGGA,0.148
23,GCATACTA,-0.0324
24,CCTACCAG,-0.139
25,CCTAGCTA,-0.0591

row,Sequence,PBM E-score
1,CAGAAAGA,-0.0713
2,CACATTTA,0.0149
3,CCGGGTCA,0.316
4,TGAAATCA,-0.00722
5,ACCGATGA,0.0223
6,ATACAACC,0.295
7,ACTTGAAA,0.0945
8,CCCATTCA,-0.0794
9,CACGTAGA,-0.0904
10,AGGTTGTG,0.349
11,ATGGCCGC,0.0134
12,CGTTTGGC,-0.112
13,GAACCCCA,0.291
14,CGACTAAC,0.19
15,AAAAGCAT,0.109
16,AATTCCGC,-0.0215
17,ATGACCAC,0.289
18,GATTCAAC,-0.034
19,GTGCGGAA,-0.102
